This test deals with NCI-H322M lung. The test can be described thus: inhibition of tumour cell growth, NCI panel, 48 h.

SMILES strings stand for the structures.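 Compound exposure: 48 hours, 5 concentrations, 96-well plates. Abbreviation: GI50, concentration required for 50% inhibition of growth. TGI: concentration producing complete growth inhibition.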 Bounds are passed on as bounds.

The text below walks through data of PubChem BioAssay (NCI).

Compound `Cc1ccc(S(=O)(=O)N(CC(O)COc2ccccc2)c2c(F)c(F)c(F)c(F)c2F)cc1` (stereo not given) yielded a TGI of 62.8 µM.

In turn, `Cc1cc2c(cc1Cl)SSc1cc(Cl)c(C)cc1S(=O)(=O)Nc1nc(N)nn1C(O)n1nc(N)nc1NS2(=O)=O` yielded a TGI of over 10 µM. Same read-out and setting: for `COP(=O)(OC)[C@@](O)(c1ccccc1)[C@@H](O)[C@H](O)c1ccccc1` the value was over 100 µM. With `Cc1cc(NC(=O)NCCCOc2ccc(N3C(N)=NC(N)=NC3(C)C)cc2Cl)ccc1S(=O)(=O)F`, the GI50 was 1.58 µM and the TGI was over 93.3 µM. Compound `C/C(=N/NC(=S)N1CCCCCC1)c1cccc(/C(C)=N\NC(=S)N2CCCCCC2)n1` gave a TGI of 2.95 µM.

In the case of `C[N+](C)(N)Cc1nc(-c2ccc(Cl)cc2)no1`, the TGI is over 100 µM. On to `COC(=O)C12C(=O)CC3CCC1C32C(=O)OC` (stereo not given), for which the TGI was over 100 µM.

As for `CN1CCC2(CC1)C(=O)Nc1cc(NC(=O)c3ccc4c(c3)C[C@@H]3C(C)(C)[C@H](O)[C@H](F)C[C@@]3(C)O4)ccc12`, the GI50 is 25.2 µM and the TGI is over 100 µM.
